In the supplement of paper PMC6089552:
Out of some 3,200 compounds screened, about 300 (9.4%) showed activity. The list shows a part of the results, in another mix than the full data.

Test system: A673/TR/shEF
Assay: cell viability (LOESS-normalised, relative to median of negative controls) (log2 ratio); higher = more viable cells (less compound effect), active = hit call of the paper (over 3 MAD below the median)
Conditions: treatment time: 72 h
Summary of the method: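 A673/TR/shEF Ewing sarcoma cells were plated at 1,500 per well in 384-well plates and cultured with or without doxycycline, added 24 h before compounds, to induce EWS-FLI1 shRNA knockdown. Library compounds at two or more concentrations, alongside DMSO controls, were applied for three days. Cell viability was measured by CellTiter-Glo luminescence on an Envision reader. Readings were LOESS-corrected per plate, divided by the median of negative controls and log2-transformed, and hits were wells lying at least three median absolute deviations from the median of all screened wells.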

[1] = 0.25 µM, library screen: screen2, EWS-FLI1 expression: high (no doxycycline)
[2] = 0.25 µM, library screen: screen2, EWS-FLI1 expression: low (doxycycline-induced shRNA knockdown)
[3] = 2.5 µM, library screen: screen2, EWS-FLI1 expression: high (no doxycycline)
[4] = 2.5 µM, library screen: screen2, EWS-FLI1 expression: low (doxycycline-induced shRNA knockdown)
[5] = 0.103 µM, library screen: screen3, EWS-FLI1 expression: high (no doxycycline)
[6] = 0.103 µM, library screen: screen3, EWS-FLI1 expression: low (doxycycline-induced shRNA knockdown)
[7] = 0.308 µM, library screen: screen3, EWS-FLI1 expression: high (no doxycycline)
[8] = 0.308 µM, library screen: screen3, EWS-FLI1 expression: low (doxycycline-induced shRNA knockdown)
[9] = 0.926 µM, library screen: screen3, EWS-FLI1 expression: high (no doxycycline)
[10] = 0.926 µM, library screen: screen3, EWS-FLI1 expression: low (doxycycline-induced shRNA knockdown)
[11] = 2.8 µM, library screen: screen3, EWS-FLI1 expression: high (no doxycycline)
[12] = 2.8 µM, library screen: screen3, EWS-FLI1 expression: low (doxycycline-induced shRNA knockdown)
[13] = 8.3 µM, library screen: screen3, EWS-FLI1 expression: high (no doxycycline)
[14] = 8.3 µM, library screen: screen3, EWS-FLI1 expression: low (doxycycline-induced shRNA knockdown)
[15] = 25 µM, library screen: screen3, EWS-FLI1 expression: high (no doxycycline)
[16] = 25 µM, library screen: screen3, EWS-FLI1 expression: low (doxycycline-induced shRNA knockdown)
[17] = 0.25 µM, library screen: screen1, EWS-FLI1 expression: high (no doxycycline)
[18] = 0.25 µM, library screen: screen1, EWS-FLI1 expression: low (doxycycline-induced shRNA knockdown)
[19] = 2.5 µM, library screen: screen1, EWS-FLI1 expression: high (no doxycycline)
[20] = 2.5 µM, library screen: screen1, EWS-FLI1 expression: low (doxycycline-induced shRNA knockdown)

Measured: cell viability (log2)

NC(=O)CI
inactive: [1] 0.186 | [2] 0.0745 | [3] -0.0247 | [4] 0.0697

C[C@@H]1O[C@H](C[N+](C)(C)C)C[C@H]1O
inactive: [1] 0.143 | [2] 0.0741 | [3] 0.116 | [4] -0.0161

CP(=O)(O)C1=CCNCC1
inactive: [1] 0.234 | [2] 0.0656 | [3] 0.15 | [4] 0.0635

Cn1cc(C2=C(c3cn(C4CCN(Cc5ccccn5)CC4)c4ccccc34)C(=O)NC2=O)c2ccccc21
inactive: [5] -0.105 | [6] -0.0101 | [7] -0.0168 | [8] 0.054 | [9] -0.0718 | [10] 0.0485 | [11] -0.024 | [12] -0.0681 | [13] 0.0419 | [14] 0.0589 | [15] -0.03 | [16] 0.0493

NC(=O)c1cc(N2CC2)c([N+](=O)[O-])cc1[N+](=O)[O-]
inactive: [1] 0.145 | [2] 0.126 | [3] 0.011 | [4] 0.0989

C=CCN1CC[C@]23c4c5ccc(O)c4O[C@H]2C(=O)CC[C@@]3(O)[C@H]1C5
inactive: [17] 0.125 | [18] 0.0831 | [1] 0.177 | [2] 0.0872 | [19] 0.148 | [20] 0.105 | [3] 0.0889 | [4] 0.129

Cc1ccc2cc3c(ccc4ccccc43)c3c2c1CC3
inactive: [17] 0.0577 | [18] -0.00243 | [19] 0.111 | [20] 0.12

C[C@@H]1C(=O)O[C@H]2[C@H]1CC[C@@]1(C)C=CC(=O)[C@@]3(C)O[C@@]213
inactive: [17] -0.0341 | [18] 0.0137 | [19] 0.0354 | [20] 0.0553

CC[C@@H](C)C(=O)O[C@H]1[C@H](O)[C@H]2[C@@H](CN3C[C@@H](C)CC[C@H]3[C@@]2(C)O)[C@@H]2C[C@]34O[C@]5(O)[C@@H](OC(=O)[C@@](C)(O)[C@@H](C)O)CC[C@@]3(C)[C@@H]5[C@@H](OC(C)=O)[C@@H](OC(C)=O)[C@H]4[C@@]21O
inactive: [17] 0.0432 | [18] 0.0125 | [19] 0.068 | [20] 0.0811

C=CCN1CCC23c4c5ccc(O)c4O[C@@H]2/C(=N/NC(=O)c2ccccc2)CCC3(O)[C@H]1C5 (some centres undefined)
inactive: [1] 0.0804 | [2] 0.0684 | [3] 0.0878 | [4] 0.0887

CCCC(C)C1(CC)C(=O)NC(=O)NC1=O (centres undefined)
inactive: [17] 0.0325 | [18] 0.0542 | [19] 0.0314 | [20] 0.0176

C=CCc1ccc2c(c1)OCO2
inactive: [17] 0.0124 | [18] 0.0225 | [19] 0.144 | [20] 0.0477

CCNc1nc(Cl)nc(NC(C)C)n1
inactive: [17] 0.143 | [18] 0.0518 | [19] 0.132 | [20] 0.0856

S=C=Nc1cccc(C2(N3CCCCC3)CCCCC2)c1
inactive: [1] 0.168 | [2] 0.105 | [3] 0.16 | [4] 0.118

CNC(=O)CSP(=S)(OC)OC
inactive: [17] 0.102 | [18] 0.0684 | [19] 0.15 | [20] 0.0982

CC(=O)O[C@H]1C[C@@H]2CC[C@@H]3[C@H](CC[C@@]4(C)[C@H]3C[C@H]([N+]3(C)CCCCC3)[C@@H]4OC(C)=O)[C@@]2(C)C[C@@H]1[N+]1(C)CCCCC1
inactive: [5] 0.0285 | [6] 0.0357 | [1] 0.133 | [2] 0.105 | [7] 0.115 | [8] 0.051 | [9] 0.183 | [10] 0.0779 | [3] 0.145 | [4] 0.0752 | [11] 0.112 | [12] 0.0286 | [13] 0.106 | [14] 0.0203 | [15] 0.16 | [16] 0.0865

C[C@]12CC[C@H](O)C[C@H]1CC[C@@H]1[C@@H]2CC[C@]2(C)[C@@H](C3=CC(=O)OC3)[C@@H](O)C[C@]12O
inactive: [17] 0.0825 | [18] 0.115 | [19] 0.137 | [20] 0.0999

C[C@]12CCC(=O)C[C@@H]1CC[C@@H]1[C@@H]2CC[C@]2(C)C(=O)CC[C@@H]12
inactive: [17] 0.077 | [18] 0.117 | [19] 0.123 | [20] 0.0635

CN1CCc2cccc(Cl)c2CC1
inactive: [1] 0.121 | [2] 0.0417 | [3] 0.207 | [4] 0.058

NC(CCCCCP(=O)(O)O)C(=O)O (centres undefined)
inactive: [1] 0.0556 | [2] 0.14 | [3] 0.136 | [4] 0.152

COc1cc2c(cc1O)CCNC2C (centres undefined)
inactive: [17] -0.0405 | [18] -0.0233 | [19] 0.0226 | [20] 0.0664

COc1ccc2[nH]cc(CCN(C)C)c2c1
inactive: [1] 0.123 | [2] 0.116 | [3] 0.141 | [4] 0.0987

NCC(O)c1ccc(O)cc1 (centres undefined)
inactive: [17] 0.208 | [18] 0.108 | [1] 0.0858 | [2] 0.0915 | [19] 0.142 | [20] 0.103 | [3] 0.0525 | [4] -0.0117

COC(=O)N1CCN(C(=O)Cc2ccc(Cl)c(Cl)c2)C(CN2CCCC2)C1 (centres undefined)
inactive: [1] 0.113 | [2] 0.0667 | [3] 0.119 | [4] 0.106

CC(C)NC(C)Cc1ccc(I)cc1 (centres undefined)
inactive: [1] 0.0787 | [2] 0.0338 | [3] 0.129 | [4] 0.0526

COP(=O)(NC(C)=O)SC (centres undefined)
inactive: [17] -0.0123 | [18] -0.0415 | [19] 0.154 | [20] -0.0324

CCCN(CCC)C1Cc2cc(OC)c(OC)cc2C1
inactive: [1] 0.175 | [2] 0.0422 | [3] 0.111 | [4] 0.0467

O=c1c2ccccc2[se]n1-c1ccccc1
inactive: [17] 0.0739 | [18] -0.108 | [1] 0.129 | [2] 0.0598 | [19] 0.127 | [20] 0.00216 | [3] 0.153 | [4] -0.000469

C[N+]1(C)C2CCC1CC(OC(=O)C(CO)c1ccccc1)C2 (centres undefined)
inactive: [1] 0.176 | [2] 0.157 | [3] 0.136 | [4] 0.121

COc1ccc(C(=O)OC2CCC3(C)C4CCC5[C@]6(O)C[C@H](O)[C@@]7(O)C(CN8CC(C)CCC8[C@@]7(C)O)[C@]6(O)C[C@@]53O[C@]24O)cc1OC (some centres undefined)
inactive: [17] 0.0564 | [18] 0.0531 | [19] 0.0896 | [20] 0.133

C[Se]C[C@H](N)C(=O)O
inactive: [1] 0.11 | [2] 0.0416 | [3] 0.149 | [4] 0.0546

NCC(CC(=O)O)c1ccc(Cl)cc1 (centres undefined)
inactive: [17] 0.0966 | [18] 0.12 | [1] 0.221 | [2] 0.138 | [19] 0.123 | [20] 0.15 | [3] 0.124 | [4] 0.0836

Cc1ccccc1O
inactive: [17] 0.162 | [18] 0.0964 | [19] 0.189 | [20] 0.175

CN(C)[C@@H]1C(=O)C(C(N)=O)=C(O)[C@@]2(O)C(=O)C3=C(O)c4c(O)cccc4[C@@](C)(O)[C@H]3C[C@@H]12
active: [17] -0.127

CCCN1CCC[C@@H](c2cccc(C#N)c2)C1
inactive: [1] 0.21 | [2] 0.0529 | [3] 0.222 | [4] 0.141

CC1(C)[C@H](C(=O)O[C@H](C#N)c2cccc(Oc3ccccc3)c2)[C@@H]1C=C(Br)Br
inactive: 0.025 µM, library screen: screen1, EWS-FLI1 expression: high (no doxycycline) 0.0513 | 0.025 µM, library screen: screen1, EWS-FLI1 expression: low (doxycycline-induced shRNA knockdown) -0.0407 | [17] 0.047 | [18] 0.086 | [19] 0.112 | [20] 0.12 | 25 µM, library screen: screen1, EWS-FLI1 expression: high (no doxycycline) -0.0163 | 25 µM, library screen: screen1, EWS-FLI1 expression: low (doxycycline-induced shRNA knockdown) 0.0977

CC(NC(C)(C)C)C(=O)c1cccc(Cl)c1 (centres undefined)
inactive: [5] 0.0767 | [6] 0.0873 | [17] 0.182 | [18] 0.0913 | [1] 0.226 | [2] 0.117 | [7] 0.129 | [8] 0.062 | [9] 0.0592 | [10] 0.0977 | [19] 0.187 | [20] -0.00861 | [3] 0.0526 | [4] 0.0601 | [11] 0.0838 | [12] 0.0713 | [13] 0.0119 | [14] 0.0647 | [15] 0.131 | [16] 0.0511

NC(CP(=O)(O)O)C(=O)O (centres undefined)
inactive: [1] 0.0911 | [2] 0.12 | [3] 0.132 | [4] 0.122

CN1CCc2cc(O)cc3c2C1Cc1ccc(O)c(O)c1-3 (centres undefined)
inactive: [1] 0.248 | [2] 0.14 | [3] 0.197 | [4] 0.135

O=C1CC[C@@]2(O)[C@H]3Cc4ccc(O)c5c4[C@@]2(CCN3CC2CC2)[C@H]1O5
inactive: [17] 0.0954 | [18] 0.126 | [1] 0.163 | [2] 0.116 | [19] 0.095 | [20] 0.0763 | [3] 0.183 | [4] 0.128

NC(=O)c1cc([N+](=O)[O-])cc([N+](=O)[O-])c1
inactive: 0.025 µM, library screen: screen2, EWS-FLI1 expression: high (no doxycycline) 0.148 | 0.025 µM, library screen: screen2, EWS-FLI1 expression: low (doxycycline-induced shRNA knockdown) 0.069 | [17] 0.071 | [18] 0.00829 | [1] 0.134 | [2] 0.0542 | [19] 0.16 | [20] 0.158 | [3] 0.195 | [4] 0.121 | 25 µM, library screen: screen2, EWS-FLI1 expression: high (no doxycycline) 0.244 | 25 µM, library screen: screen2, EWS-FLI1 expression: low (doxycycline-induced shRNA knockdown) 0.114
